Reference: a collection of fitness landscapes (doi:10.1016/j.celrep.2020.107928)
The full ranking holds about 81,000 sequences; the median of “one-hybrid fitness for binding parS DNA” is about -0.17, and the highest 2% start at about 0.51. The list shows a part of the results.

B1: Caulobacter ParB omega fusion; a variant is named by its letters at X, in order, B8GW30 (parent)
chain: MESVVVGEPGMSEGRRGLGRGLSALLGEVDAAPAQAPGEQLGGSREAPIEILQRNPDQPRRTFREEDLEDLSNSIREKGVLQPILVRPSPDTAGEYQIVAGERAWRAAQRAGLKTVPIMVRELDDLAVLEIGIIENVQRADLNVLEEALSYKVLMEKFERTQENIAQTIGKSXSHVANXMRLLXLPDEVQSYLVSGELTAXHARAIAAAADPVALAKQIIEGGLSVRETEALARKAPNLSAGKSKGGRPPRVKDTDTQALESDLSSVLGLDVSIDHRGSTGTLTITYATLEQLDDLCNRLTRGI

Variants of: B1
Assay: one-hybrid fitness for binding parS DNA (scaled: cognate 1, non-cognate 0); higher = stronger binding
Conditions: with parS DNA site
In short: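 Caulobacter ParB libraries with four specificity codons randomised were screened by bacterial one-hybrid selection in the E. coli USO strain, using a HIS3 reporter whose site lies 19 bp from the promoter. Selection ran for 48 hours at 37°C on M9 lacking histidine, with 0.1 mM IPTG and 5 mM 3-AT. Plasmids were Illumina-sequenced before and after selection, three replicate libraries were pooled, and variants with under 10 reads were dropped. Fitness is the log change in each variant's read ratio to wild type, rescaled against the cognate and non-cognate sites.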
For FQPG, the “one-hybrid fitness for binding parS DNA” value was at most 0.2.
In the case of GQLM, the “one-hybrid fitness for binding parS DNA” value is reported as at most 0.2.
For FAHW, the “one-hybrid fitness for binding parS DNA” value was at most 0.2.
RTPW was tested, and the “one-hybrid fitness for binding parS DNA” value was at most 0.2.
NPWT was tested, and the “one-hybrid fitness for binding parS DNA” value was at most 0.2.
With RHLA the “one-hybrid fitness for binding parS DNA” value was 0.533.
WENG was tested, and the “one-hybrid fitness for binding parS DNA” value was at most 0.2.
For LEMS, the “one-hybrid fitness for binding parS DNA” value was at most 0.2.
In the case of SMDR, the “one-hybrid fitness for binding parS DNA” value is reported as at most 0.2.
With YARG the “one-hybrid fitness for binding parS DNA” value was at most 0.2.
RVRF was tested, and the “one-hybrid fitness for binding parS DNA” value was 0.266.
With HIYV the “one-hybrid fitness for binding parS DNA” value was at most 0.2.
In the case of DSNH, the “one-hybrid fitness for binding parS DNA” value is reported as at most 0.2.
With GLLS the “one-hybrid fitness for binding parS DNA” value was at most 0.2.
For YSKS, the “one-hybrid fitness for binding parS DNA” value was at most 0.2.
SIHS was tested, and the “one-hybrid fitness for binding parS DNA” value was at most 0.2.
With KRLY the “one-hybrid fitness for binding parS DNA” value was at most 0.2.
With NAFR the “one-hybrid fitness for binding parS DNA” value was at most 0.2.
QLKG was tested, and the “one-hybrid fitness for binding parS DNA” value was at most 0.2.
TVKP was tested, and the “one-hybrid fitness for binding parS DNA” value was at most 0.2.
With ADLK the “one-hybrid fitness for binding parS DNA” value was at most 0.2.
With IKSN the “one-hybrid fitness for binding parS DNA” value was at most 0.2.
In the case of VENL, the “one-hybrid fitness for binding parS DNA” value is reported as at most 0.2.
With YRQT the “one-hybrid fitness for binding parS DNA” value was at most 0.2.
EKSV was tested, and the “one-hybrid fitness for binding parS DNA” value was at most 0.2.
In the case of YRER, the “one-hybrid fitness for binding parS DNA” value is reported as at most 0.2.
HALE was tested, and the “one-hybrid fitness for binding parS DNA” value was at most 0.2.
PFKR was tested, and the “one-hybrid fitness for binding parS DNA” value was at most 0.2.
CHHG was tested, and the “one-hybrid fitness for binding parS DNA” value was at most 0.2.
With WQNY the “one-hybrid fitness for binding parS DNA” value was at most 0.2.
GTAF was tested, and the “one-hybrid fitness for binding parS DNA” value was at most 0.2.
TLLS was tested, and the “one-hybrid fitness for binding parS DNA” value was at most 0.2.
QRPL was tested, and the “one-hybrid fitness for binding parS DNA” value was at most 0.2.
With AINC the “one-hybrid fitness for binding parS DNA” value was at most 0.2.
SRPG was tested, and the “one-hybrid fitness for binding parS DNA” value was at most 0.2.
In the case of WYFG, the “one-hybrid fitness for binding parS DNA” value is reported as at most 0.2.
For HIFI, the “one-hybrid fitness for binding parS DNA” value was at most 0.2.
For YLRM, the “one-hybrid fitness for binding parS DNA” value was at most 0.2.
For VEPG, the “one-hybrid fitness for binding parS DNA” value was at most 0.2.
For CKVR, the “one-hybrid fitness for binding parS DNA” value was at most 0.2.
In the case of RYIT, the “one-hybrid fitness for binding parS DNA” value is reported as 0.628.
With VEVA the “one-hybrid fitness for binding parS DNA” value was at most 0.2.
For NIRS, the “one-hybrid fitness for binding parS DNA” value was at most 0.2.
For PRIS, the “one-hybrid fitness for binding parS DNA” value was at most 0.2.
For WLQS, the “one-hybrid fitness for binding parS DNA” value was at most 0.2.
NRPF was tested, and the “one-hybrid fitness for binding parS DNA” value was at most 0.2.
In the case of LRTY, the “one-hybrid fitness for binding parS DNA” value is reported as at most 0.2.
For SRQI, the “one-hybrid fitness for binding parS DNA” value was at most 0.2.
For PHCV, the “one-hybrid fitness for binding parS DNA” value was at most 0.2.
NRPT was tested, and the “one-hybrid fitness for binding parS DNA” value was at most 0.2.
SCRL was tested, and the “one-hybrid fitness for binding parS DNA” value was at most 0.2.
GHHM was tested, and the “one-hybrid fitness for binding parS DNA” value was at most 0.2.
In the case of KNDR, the “one-hybrid fitness for binding parS DNA” value is reported as at most 0.2.
With VNHS the “one-hybrid fitness for binding parS DNA” value was at most 0.2.
SLSL was tested, and the “one-hybrid fitness for binding parS DNA” value was at most 0.2.
In the case of TLNV, the “one-hybrid fitness for binding parS DNA” value is reported as at most 0.2.
LRIT was tested, and the “one-hybrid fitness for binding parS DNA” value was at most 0.2.
In the case of DSHG, the “one-hybrid fitness for binding parS DNA” value is reported as at most 0.2.
In the case of LNGV, the “one-hybrid fitness for binding parS DNA” value is reported as at most 0.2.
With AEQC the “one-hybrid fitness for binding parS DNA” value was at most 0.2.
QNRY was tested, and the “one-hybrid fitness for binding parS DNA” value was at most 0.2.
For EITR, the “one-hybrid fitness for binding parS DNA” value was at most 0.2.
With AKLS the “one-hybrid fitness for binding parS DNA” value was at most 0.2.
With KRFG the “one-hybrid fitness for binding parS DNA” value was at most 0.2.
With TVPD the “one-hybrid fitness for binding parS DNA” value was at most 0.2.
RHHN was tested, and the “one-hybrid fitness for binding parS DNA” value was 0.391.
PCPA was tested, and the “one-hybrid fitness for binding parS DNA” value was at most 0.2.
With MMST the “one-hybrid fitness for binding parS DNA” value was at most 0.2.
In the case of KRNY, the “one-hybrid fitness for binding parS DNA” value is reported as at most 0.2.
For RFMQ, the “one-hybrid fitness for binding parS DNA” value was at most 0.2.
For TFNL, the “one-hybrid fitness for binding parS DNA” value was at most 0.2.
For GEVT, the “one-hybrid fitness for binding parS DNA” value was at most 0.2.
For TKQA, the “one-hybrid fitness for binding parS DNA” value was at most 0.2.
GWYA was tested, and the “one-hybrid fitness for binding parS DNA” value was at most 0.2.
For MATT, the “one-hybrid fitness for binding parS DNA” value was at most 0.2.
In the case of LAPG, the “one-hybrid fitness for binding parS DNA” value is reported as at most 0.2.
In the case of FGLR, the “one-hybrid fitness for binding parS DNA” value is reported as at most 0.2.
In the case of PYWS, the “one-hybrid fitness for binding parS DNA” value is reported as at most 0.2.
For WIDC, the “one-hybrid fitness for binding parS DNA” value was at most 0.2.
For QQDY, the “one-hybrid fitness for binding parS DNA” value was at most 0.2.
With LHVS the “one-hybrid fitness for binding parS DNA” value was at most 0.2.
With ATVH the “one-hybrid fitness for binding parS DNA” value was at most 0.2.
In the case of RAGW, the “one-hybrid fitness for binding parS DNA” value is reported as 0.253.
LQHC was tested, and the “one-hybrid fitness for binding parS DNA” value was at most 0.2.
With QQHM the “one-hybrid fitness for binding parS DNA” value was at most 0.2.
For RFPL, the “one-hybrid fitness for binding parS DNA” value was at most 0.2.
In the case of QKDW, the “one-hybrid fitness for binding parS DNA” value is reported as at most 0.2.
With WAWT the “one-hybrid fitness for binding parS DNA” value was at most 0.2.
With PRET the “one-hybrid fitness for binding parS DNA” value was at most 0.2.
In the case of QCKT, the “one-hybrid fitness for binding parS DNA” value is reported as at most 0.2.
LPCG was tested, and the “one-hybrid fitness for binding parS DNA” value was at most 0.2.
With PNRV the “one-hybrid fitness for binding parS DNA” value was at most 0.2.
With VHGR the “one-hybrid fitness for binding parS DNA” value was at most 0.2.
GSKV was tested, and the “one-hybrid fitness for binding parS DNA” value was at most 0.2.
TCQT was tested, and the “one-hybrid fitness for binding parS DNA” value was at most 0.2.
With AQKD the “one-hybrid fitness for binding parS DNA” value was at most 0.2.
With QWTC the “one-hybrid fitness for binding parS DNA” value was at most 0.2.
TDET was tested, and the “one-hybrid fitness for binding parS DNA” value was at most 0.2.
